153 variants from a collection of fitness landscapes (doi:10.1126/science.1257360) can be followed below.

Sequences and labels used below:
B1: PhoQ; a variant is named by its letters at X, in order, P23837 (parent)
chain: MKKLLRLFFPLSLRVRFLLATAAVVLVLSLAYGMVALIGYSVSFDKTTFRLLRGESNLFYTLAKWENNKLHVELPENIDKQSPTMTLIYDENGQLLWAQRDVPWLMKMIQPDWLKSNGFHEIEADVNDTSLLLSGDHSIQQQLQEVREDDDDAEMTHSVAVNVYPATSRMPKLTIVVVDTIPVELKSSYMVWSWFIYVLSANLLLVIPLLWVAAWWSLRPIEALAKEVRELEEHNRELLNPATTRELTSLVRNLNRLLKSERERYDKYRTTLTDLTHSLKTPLXXLQXXLRSLRSEKMSVSDAEPVMLEQISRISQQIGYYLHRASMRGGTLLSRELHPVAPLLDNLTSALNKVYQRKGVNISLDISPEISFVGEQNDFVEVMGNVLDNACKYCLEFVEISARQTDEHLYIVVEDDGPGIPLSKREVIFDRGQRVDTLRPGQGVGLAVAREITEQYEGKIVAGESMLGGARMEVIFGRQHSAPKDE

The other results are listed elsewhere or left out.

In this assay the parent is B1. Kind of assay: enrichment ratio after two sorts for PhoP signalling (ratio (wild type AVST 3.29)); higher = more functional. Particulars: with PhoP (E. coli).
Turning to RSPD, the enrichment ratio was at most 0.25.
As to HDSY, the enrichment ratio was at most 0.25.
For the variant NILT, the enrichment ratio is at most 0.25.
For SSSY the value was 8.81.
With KCFS, the enrichment ratio was at most 0.25.
For the variant VKTP, the enrichment ratio is at most 0.25.
The same measure for EYSM: at most 0.25.
As for IQTR, the enrichment ratio is at most 0.25.
For APYH, the enrichment ratio is at most 0.25.
For the variant GVPM, the enrichment ratio is at most 0.25.
For NLGF the value was at most 0.25; for MRHQ, at most 0.25.
The same measure for WYIP: at most 0.25; for EYFV: at most 0.25.
For LEHI the value was at most 0.25; for PEAH, at most 0.25.
YQPD: the enrichment ratio was at most 0.25.
For the variant AFCA, the enrichment ratio is at most 0.25.
In the case of DTEF, the enrichment ratio is at most 0.25.
For YYIS, the enrichment ratio was at most 0.25.
For SFSW, the enrichment ratio is at most 0.25.
Consider THYK, for which the enrichment ratio was at most 0.25.
For APQH the value was at most 0.25; for ILDH, at most 0.25; for DRQK, at most 0.25.
The same measure for APFH: at most 0.25; for YYSY: at most 0.25.
With EGFM, the enrichment ratio was at most 0.25.
Consider CSLH, for which the enrichment ratio was at most 0.25.
As for RYGH, the enrichment ratio is at most 0.25.
With AEAH, the enrichment ratio was 7.03.
Regarding PSLL, the enrichment ratio was at most 0.25.
The same measure for KVGL: at most 0.25.
Consider EVKW, for which the enrichment ratio is at most 0.25.
As to RRCL, the enrichment ratio is at most 0.25.
Take RHKT: the enrichment ratio is at most 0.25.
For LPSN, the enrichment ratio was at most 0.25.
In the case of SHIK, the enrichment ratio is at most 0.25.
For the variant ASQT, the enrichment ratio was at most 0.25.
SFRH: the enrichment ratio is at most 0.25.
For MAHR the value was at most 0.25; for LCPW, at most 0.25.
Turning to GCDW, the enrichment ratio is at most 0.25.
On to TEPA, for which the enrichment ratio is at most 0.25.
Regarding EFDH, the enrichment ratio is at most 0.25.
For PFKT, the enrichment ratio is at most 0.25.
The same measure for SQNH: at most 0.25.
On to WLWL, for which the enrichment ratio was at most 0.25.
For WCWS, the enrichment ratio is at most 0.25.
Turning to GLPI, the enrichment ratio was at most 0.25.
Regarding FARS, the enrichment ratio is at most 0.25.
RPYL: the enrichment ratio is at most 0.25.
As to ATYQ, the enrichment ratio amounted to 0.887.
The same measure for FCAA: at most 0.25; for RENI: at most 0.25.
As for YVVA, the enrichment ratio is at most 0.25.
For SGHT the value was at most 0.25.
As for WKSK, the enrichment ratio was at most 0.25.
The same measure for KLPA: at most 0.25; for TRIR: at most 0.25; for FAFV: at most 0.25.
The same measure for LNEP: at most 0.25; for VLSR: at most 0.25.
On to FWCG, for which the enrichment ratio is at most 0.25.
Turning to WMYE, the enrichment ratio was at most 0.25.
For WVLV, the enrichment ratio was at most 0.25.
For the variant AFKR, the enrichment ratio is at most 0.25.
The same measure for SVES: at most 0.25.
In the case of FFFA, the enrichment ratio is at most 0.25.
The same measure for IDAH: at most 0.25; for NDRQ: at most 0.25; for SGHG: at most 0.25.
For SFHL the value was at most 0.25.
Turning to MHLK, the enrichment ratio was at most 0.25.
As to VHVK, the enrichment ratio was at most 0.25.
As to NLDC, the enrichment ratio is at most 0.25.
Take RGRP: the enrichment ratio was at most 0.25.
Regarding TTCY, the enrichment ratio worked out at 4.01.
Take TRDT: the enrichment ratio was at most 0.25.
The same measure for NHVC: at most 0.25.
Take HWSK: the enrichment ratio was at most 0.25.
LPQM: the enrichment ratio was at most 0.25.
Turning to HLWK, the enrichment ratio was at most 0.25.
The same measure for GVIH: at most 0.25.
For SQHQ the value was at most 0.25; for SSNS, 0.835.
Turning to RPMF, the enrichment ratio was at most 0.25.
In the case of DMQN, the enrichment ratio was at most 0.25.
Regarding TMHY, the enrichment ratio was determined as 3.73.
Turning to TRAV, the enrichment ratio is at most 0.25.
For MKHY the value was at most 0.25; for SYDF, at most 0.25; for LEGF, at most 0.25.
ANMD: the enrichment ratio is at most 0.25.
Turning to DNFA, the enrichment ratio was at most 0.25.
Turning to FACD, the enrichment ratio is at most 0.25.
Turning to AIGL, the enrichment ratio stood at 7.5.
Turning to LNMW, the enrichment ratio was at most 0.25.
EDSC: the enrichment ratio was at most 0.25.
As for YEQT, the enrichment ratio was at most 0.25.
As to ASAS, the enrichment ratio turned out to be 15.3.
As to IMFS, the enrichment ratio is at most 0.25.
With QQWV, the enrichment ratio is 11.8.
Take QYNL: the enrichment ratio is at most 0.25.
Turning to FSTP, the enrichment ratio stood at 0.786.
The same measure for DDHM: at most 0.25.
Regarding TAGN, the enrichment ratio worked out at 7.67.
The same measure for KPIE: at most 0.25; for DDWR: at most 0.25.
For IISC the value was at most 0.25.
On to KQCA, for which the enrichment ratio was at most 0.25.
The same measure for WIPG: at most 0.25; for TFSH: at most 0.25; for VQPD: at most 0.25.
PICD: the enrichment ratio was at most 0.25.
With MVFQ, the enrichment ratio was 13.2.
Regarding DDMV, the enrichment ratio is at most 0.25.
The same measure for GVMD: at most 0.25; for LFVG: at most 0.25.
Consider EEHK, for which the enrichment ratio was at most 0.25.
The same measure for HGSN: at most 0.25.
As to FYYA, the enrichment ratio was at most 0.25.
The same measure for RGYV: at most 0.25.
The same measure for LGEC: at most 0.25; for SGLD: at most 0.25.
As for AKWP, the enrichment ratio is at most 0.25.
As to QGDS, the enrichment ratio is at most 0.25.
Turning to LNGT, the enrichment ratio was at most 0.25.
The same measure for YPQW: at most 0.25; for FSMD: at most 0.25; for LGSV: at most 0.25.
For IMMM the value was at most 0.25; for LFAH, at most 0.25; for VIHR, at most 0.25.
As for KNTV, the enrichment ratio is at most 0.25.
With YCES, the enrichment ratio was at most 0.25.
For LTDT the value was at most 0.25.
For FVGD, the enrichment ratio is at most 0.25.
As for ACPG, the enrichment ratio was at most 0.25.
As for WIMI, the enrichment ratio was at most 0.25.
As for KFTQ, the enrichment ratio was at most 0.25.
In the case of EIVG, the enrichment ratio was at most 0.25.
The same measure for YDHQ: at most 0.25; for TWTR: at most 0.25; for GTDM: at most 0.25.
Regarding THET, the enrichment ratio was at most 0.25.
RRPK: the enrichment ratio was at most 0.25.
The same measure for LNIM: at most 0.25.
HDNH: the enrichment ratio is at most 0.25.
With VSWQ, the enrichment ratio came out at 0.83.
Take MQIW: the enrichment ratio was at most 0.25.
The same measure for YTNV: at most 0.25; for GLGH: at most 0.25.
